According to paper PMC4049591:
These are yes or no findings as the source states them, for the method shown. Binding seen in cells or lysates may run through a third protein. Some results given as binding are weak or reduced against the parent protein; the word gives no strength. For some assays here: Where a sequence is shown, tags or fusion partners need not be part of it.

Chains of the proteins cited; added tags and fusions are not shown. Lines headed by an entry give the natural chain unless they say otherwise; changes in a name come on top. A line that says so, or that is headed by a name, gives the form on record, which may keep a tag or linker. Residues count along the entry.
Full length human sonic hedgehog with HA tag (SHH-HA), glycosylated (Q15465, residues 24-462): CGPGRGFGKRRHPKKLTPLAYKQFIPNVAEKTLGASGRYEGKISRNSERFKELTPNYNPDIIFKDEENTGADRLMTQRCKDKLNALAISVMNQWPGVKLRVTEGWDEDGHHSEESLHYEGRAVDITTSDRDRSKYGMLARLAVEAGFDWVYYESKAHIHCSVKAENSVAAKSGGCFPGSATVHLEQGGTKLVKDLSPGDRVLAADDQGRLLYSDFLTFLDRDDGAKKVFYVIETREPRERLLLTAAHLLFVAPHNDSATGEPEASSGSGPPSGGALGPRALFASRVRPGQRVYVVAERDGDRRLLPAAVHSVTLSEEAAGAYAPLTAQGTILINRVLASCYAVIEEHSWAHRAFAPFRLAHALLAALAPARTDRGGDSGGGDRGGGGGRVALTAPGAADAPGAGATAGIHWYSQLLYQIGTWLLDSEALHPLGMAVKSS
Non-glycosylated human sonic hedgehog mutant N278A with HA tag (N278A-HA) (Q15465, form named): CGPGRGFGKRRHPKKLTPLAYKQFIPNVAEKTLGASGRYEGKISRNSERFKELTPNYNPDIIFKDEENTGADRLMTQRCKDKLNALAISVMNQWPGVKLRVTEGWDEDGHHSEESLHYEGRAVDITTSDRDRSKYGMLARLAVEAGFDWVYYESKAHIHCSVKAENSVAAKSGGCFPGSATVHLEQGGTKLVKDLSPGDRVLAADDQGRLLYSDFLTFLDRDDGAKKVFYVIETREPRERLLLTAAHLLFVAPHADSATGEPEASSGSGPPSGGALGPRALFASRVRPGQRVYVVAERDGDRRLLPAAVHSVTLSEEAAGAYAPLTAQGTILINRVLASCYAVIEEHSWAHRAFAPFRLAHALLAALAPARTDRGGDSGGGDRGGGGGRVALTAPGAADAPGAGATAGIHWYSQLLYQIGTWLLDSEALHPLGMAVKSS

What was measured:
[1] = biological target: T1, Myc-tagged wild type EDEM3 (human) (UniProt Q9BZQ6); assay: co-IP; 293T cells transfected with Myc-tagged EDEMs (10% of the DNA normally used); lysed in buffer with 1% Triton; immunoprecipitated with Myc antibodies; blotted for endogenous SEL1L, HRD1, Bip, calnexin and ERp57
T1 sequence: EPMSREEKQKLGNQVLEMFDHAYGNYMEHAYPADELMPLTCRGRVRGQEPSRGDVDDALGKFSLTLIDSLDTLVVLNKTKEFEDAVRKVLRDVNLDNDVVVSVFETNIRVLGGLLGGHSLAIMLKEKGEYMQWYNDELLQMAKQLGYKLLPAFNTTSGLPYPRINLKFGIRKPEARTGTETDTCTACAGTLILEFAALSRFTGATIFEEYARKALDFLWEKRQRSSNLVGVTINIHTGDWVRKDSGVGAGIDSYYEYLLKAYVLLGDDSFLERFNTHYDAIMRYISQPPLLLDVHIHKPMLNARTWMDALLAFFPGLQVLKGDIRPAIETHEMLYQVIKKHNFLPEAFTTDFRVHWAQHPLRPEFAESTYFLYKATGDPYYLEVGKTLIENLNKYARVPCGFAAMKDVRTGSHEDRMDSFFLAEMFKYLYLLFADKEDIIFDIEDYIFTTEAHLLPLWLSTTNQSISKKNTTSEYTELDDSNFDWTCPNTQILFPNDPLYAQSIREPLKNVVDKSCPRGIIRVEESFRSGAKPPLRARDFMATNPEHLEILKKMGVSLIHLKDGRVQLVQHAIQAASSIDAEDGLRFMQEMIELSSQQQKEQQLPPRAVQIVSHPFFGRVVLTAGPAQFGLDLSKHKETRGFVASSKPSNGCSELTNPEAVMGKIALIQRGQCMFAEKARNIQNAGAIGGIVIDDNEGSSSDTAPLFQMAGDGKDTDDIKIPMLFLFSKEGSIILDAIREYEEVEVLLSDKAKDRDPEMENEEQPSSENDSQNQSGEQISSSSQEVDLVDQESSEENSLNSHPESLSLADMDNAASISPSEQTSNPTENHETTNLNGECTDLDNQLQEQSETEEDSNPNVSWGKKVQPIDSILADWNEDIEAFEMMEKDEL

[2] = biological target: T2, Myc-tagged EDEM1 active site mutant E493Q (human) (UniProt Q92611); assay: as above
T2 sequence: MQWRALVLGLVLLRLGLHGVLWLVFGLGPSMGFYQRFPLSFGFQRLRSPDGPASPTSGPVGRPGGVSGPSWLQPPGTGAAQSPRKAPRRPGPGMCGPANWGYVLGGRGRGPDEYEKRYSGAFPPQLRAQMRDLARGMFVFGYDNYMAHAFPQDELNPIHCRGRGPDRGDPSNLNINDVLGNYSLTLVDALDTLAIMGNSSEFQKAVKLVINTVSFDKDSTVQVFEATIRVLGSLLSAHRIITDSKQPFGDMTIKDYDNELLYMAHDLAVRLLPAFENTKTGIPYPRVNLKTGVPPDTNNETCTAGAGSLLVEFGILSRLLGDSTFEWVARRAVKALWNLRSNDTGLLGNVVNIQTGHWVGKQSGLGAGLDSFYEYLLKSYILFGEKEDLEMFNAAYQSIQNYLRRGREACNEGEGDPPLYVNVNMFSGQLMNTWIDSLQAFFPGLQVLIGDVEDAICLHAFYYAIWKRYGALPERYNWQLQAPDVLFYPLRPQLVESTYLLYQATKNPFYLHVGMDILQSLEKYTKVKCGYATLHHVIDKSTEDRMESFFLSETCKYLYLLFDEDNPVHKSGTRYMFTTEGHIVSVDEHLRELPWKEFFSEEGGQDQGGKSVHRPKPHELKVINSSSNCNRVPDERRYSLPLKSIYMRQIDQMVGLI

[3] = biological target: T3, Myc-tagged wild type EDEM2 (human) (UniProt Q9BV94); assay: as above
T3 sequence: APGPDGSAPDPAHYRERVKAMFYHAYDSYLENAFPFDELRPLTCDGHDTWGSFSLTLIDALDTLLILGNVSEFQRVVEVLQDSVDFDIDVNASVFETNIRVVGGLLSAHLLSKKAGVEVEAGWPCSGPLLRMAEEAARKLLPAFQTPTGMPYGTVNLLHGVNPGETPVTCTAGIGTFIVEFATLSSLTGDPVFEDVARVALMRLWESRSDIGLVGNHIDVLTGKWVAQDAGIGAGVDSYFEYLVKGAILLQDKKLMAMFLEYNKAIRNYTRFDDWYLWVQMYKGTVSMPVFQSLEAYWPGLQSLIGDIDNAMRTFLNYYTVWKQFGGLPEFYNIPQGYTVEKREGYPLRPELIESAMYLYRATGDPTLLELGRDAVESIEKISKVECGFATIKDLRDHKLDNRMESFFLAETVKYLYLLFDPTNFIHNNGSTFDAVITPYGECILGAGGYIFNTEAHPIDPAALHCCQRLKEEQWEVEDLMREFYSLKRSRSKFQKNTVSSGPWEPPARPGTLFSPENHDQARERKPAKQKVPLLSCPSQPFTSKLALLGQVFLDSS

[4] = biological target: Non-glycosylated human sonic hedgehog mutant N278A with HA tag (N278A-HA) (human) (UniProt Q15465); assay: co-IP; 293T cells stably expressing SHH-HA or N278A-HA, untreated or treated with castanospermine (CST, 0.2 mg/ml, 90 min); lysed in buffer with 1% digitonin; immunoprecipitated with HA antibodies; blotted for endogenous calnexin, calreticulin and ERp57
[5] = biological target: Full length human sonic hedgehog with HA tag (SHH-HA), glycosylated (human) (UniProt Q15465); assay: as above

- binding [1]: binds weakly
- binding [2]: binds
- binding [3]: binds
- binding [4]: no binding
- binding [5]: binds
B1: Calnexin (protein, UniProt P27824 21-592)
chain: HDGHDDDVIDIEDDLDDVIEEVEDSKPDTTAPPSSPKVTYKAPVPTGEVYFADSFDRGTLSGWILSKAKKDDTDDEIAKYDGKWEVEEMKESKLPGDKGLVLMSRAKHHAISAKLNKPFLFDTKPLIVQYEVNFQNGIECGGAYVKLLSKTPELNLDQFHDKTPYTIMFGPDKCGEDYKLHFIFRHKNPKTGIYEEKHAKRPDADLKTYFTDKKTHLYTLILNPDNSFEILVDQSVVNSGNLLNDMTPPVNPSREIEDPEDRKPEDWDERPKIPDPEAVKPDDWDEDAPAKIPDEEATKPEGWLDDEPEYVPDPDAEKPEDWDEDMDGEWEAPQIANPRCESAPGCGVWQRPVIDNPNYKGKWKPPMIDNPSYQGIWKPRKIPNPDFFEDLEPFRMTPFSAIGLELWSMTSDIFFDNFIICADRRIVDDWANDGWGLKKAADGAAEPGVVGQMIEAAEERPWLWVVYILTVALPVFLVILFCCSGKKQTSGMEYKKTDAPQPDVKEEEEEKEEEKDKGDEEEEGEEKLEEKQKSDAEEDGGTVSQEEEDRKPKAEEDEILNRSPRNRKPRRE
